Measurements from the supplement of paper PMC11417369.
± gives the standard deviation of the averaged measurements. The list shows a part of the results.

test system: PfAP2-G AP2 domain (GST-tagged); assay: gcPBM binding intensity (ln(normalized median fluorescence intensity)); higher = stronger DNA binding
How it was run: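 DNA-binding domains from P. falciparum, fused to GST and produced in E. coli, were put on an Agilent 4 × 180k double-stranded probe array for 1 h in 1× PBS holding 1% milk, 0.2 mg/ml BSA, 0.5% salmon testes DNA and 0.03% Triton X-100. Probes were primer-extended, 36 bp long and drawn from intergenic genomic regions, with negative controls included. After Alexa488 anti-GST antibody detection and a 488 nm scan, binding intensity was set as the highest Masliner-normalised natural-log median intensity across replicate spots of either probe orientation.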

Sequence	gcPBM binding intensity (ln)
ATAAATTAATGGAGAAATCTTATGAATTTATTTTAA [CACACA_negctrl_site1068]	9.37 ± 0.27
TTATTTTTATATTTCACACACATATACTTTTACATA [CACACA_site4097]	10.2 ± 0.13
ATTTAAATTTAAAAAACACACATAATATGATATATA [CACACA_site1973]	9.965 ± 0.035
AAAGAAGAAAAATATAGTACAGGGCACATGTCCTGT [XGTACX_site6293]	11.1 ± 0.74
AAAAAAAAAAAAATTGCATGTAAATGAAATAATAAA [TGCATGCA_site116]	9.6 ± 0.16
CCTATAAAACCATATACACACATATATATAAAAAAA [CACACA_site4013]	10.1 ± 0.23
TGTTTCTAAAAATTTACACACAAAATATTTCTACAT [CACACA_site4098]	9.975 ± 0.078
TTATACGATAATATGACACACAATACAAAAATGTAA [CACACA_site1918]	10.2 ± 0.14
TAATTTCTTATGTATTGTACAAATAATATATTATAT [XGTACX_site1037]	10.9 ± 0.64
TTTTCTGTGTTTTTGGGTACACACAAATAGCTTGTA [XGTACX_site8553]	11.6 ± 1.1
TGGGTATATATAAAAGGTACACAAAATGAAGATATA [XGTACX_site4994]	11.3 ± 0.8
ATATGTGTTAAAAATGCACACAAAAAAATATACATA [CACACA_site7988]	10.2 ± 0.16
CAATTTTACTCATAAACACACATATATATGTTATTA [CACACA_site3152]	9.975 ± 0.035
AATAATAACAAATGAACACACATATAGATGAGCAAA [CACACA_site7076]	9.93 ± 0.18
CTTAAGTAAAATTAAAGTACATGGACAAAAAATATA [XGTACX_site7900]	11.4 ± 0.85
TATCTCATGCGCACAAAAATATATGCAAAGAGTATA [TGCATGCA_negctrl_site201]	10.3 ± 0.4
ATGGTTTAATTATATACACACTCGAAAATAACGACA [CACACA_site3258]	10.2 ± 0.25
TGATATTATATTGTGATGCACTTTAAAAATATAAAG [GTGCAC_site9509]	10.2 ± 0.17
CTTATTTTATTCGAATGTACATAATTGTTAGACATT [XGTACX_site8583]	11 ± 0.75
TTTTACAAATGTTTTACACACACATAATTGTATCAA [CACACA_site4166]	10.1 ± 0.13
AAAAAAAGGATGTACGTATCATAATTTTATTTTATA [CACACA_negctrl_site1543]	11.5 ± 0.93
AACATAATTAAAAATTGTACAGAATTTCAATCGAAA [XGTACX_site7542]	10.8 ± 0.56

Sequence	gcPBM binding intensity (ln)
TTTTTTTTTTTTAATACACACATATATATATTTATT [CACACA_site3994]	9.82 ± 0.3
GTAAAAAAAAAAAAATGTACACATATATATAATATA [XGTACX_site159]	11.4 ± 0.82
ATAAAAATGTATATATGTACATATATATATATATAT [XGTACX_site1505]	11.4 ± 0.6
CTTTTTAATTAATACACACACACACCCATATATATA [CACACA_site2292]	10.3 ± 0.35
ATCACTTGAGAATAATTACATTAATATATATTTATG [TGCATGCA_negctrl_site581]	9.67 ± 0.13
TGAAATTTTATTAATGTGCACATATATTTATTGTTC	10.4 ± 0.31
GGGAAAGAACCATATACATGCATATTTACCGTTAAA [TGCATGCA_site519]	10 ± 0.28
CATATACATACACATACACACATACAGACATACACA [CACACA_site6919]	10.2 ± 0.17
TATAAAATTACATTTTGTCATTTATTTTTTCCCACT [TGCATGCA_negctrl_site110]	9.71 ± 0.042
TGTTTAAGTGTTTTTAGTACTTATAAAAATATTATC [XGTACX_site7379]	11.1 ± 0.63
TTTCTTTCTATTGTTATATTTATAATAATTATAATT [XGTACX_negctrl_site215]	9.875 ± 0.035
ATATTATCCCTATTTGCACACAAGAGTAATTTTTTA [CACACA_site3908]	10.2 ± 0.2
TTTTATAGAGTGTATACATGCAATACCACATAAAAT [TGCATGCA_site476]	10.4 ± 0.18
ATATGGAAGAATTAAAGTACTTAAAAAAATGTCAGT [XGTACX_site6837]	11.3 ± 0.79
AAGAAAATAAAATAAAATAAAATAAAATAAAAATAT [TGCATGCA_negctrl_site493]	9.46 ± 0.15
TATAATTTATAAGTAGTGCATTTCTTTTCATTTTTA	10.03 ± 0.057
ATTGTCTTTTAATAGTGTACTTATTTTAAATATTGC [XGTACX_site8517]	11.6 ± 0.94
TTTCTAATATATAAAGTGCAATACCATTCAGAGTTA	10.2 ± 0.25
TTATTATATATAAGTAGTACAAACAATTAAGAGATA [XGTACX_site4009]	11.6 ± 0.97
TGATGATATAAAAACACACACATATAACATAATACT [CACACA_site6687]	10 ± 0.057
TTTTTATTGTTGTACTTATATTATTTTATTATTAAA [GTGCAC_negctrl_site200]	11.4 ± 0.88
CTAATATATATCAATTGTACATATTGAATAAGAACA [XGTACX_site4541]	10.9 ± 0.49
